Laboratory results from the antibiotic and cytotoxicity screens of Wong et al. (2023).
The other results are listed elsewhere or left out.

Legend:
HSkMC = human skeletal muscle cells; test: cytotoxicity call (relative viability < 0.9); details: 10 µM
HepG2 = test: cytotoxicity call (relative viability < 0.9); details: 10 µM
S. aureus RN4220 = test: growth inhibition call (relative growth <= 0.2); details: 50 µM

| SMILES | cytotoxicity call (HSkMC) | cytotoxicity call (HepG2) | growth inhibition call (S. aureus RN4220) |
| --- | --- | --- | --- |
| C[C@H](O)[C@H](O)[C@@H](O)[C@@H](O)/C=N/NC(=O)c1ccccn1 | inactive | inactive | inactive |
| CC(C)NCC(O)COc1cccc2[nH]ccc12 (stereo unspecified) | inactive | inactive | inactive |
| Cc1noc(C)c1NC(=O)Nc1ccc2c(c1)C(=O)N([C@@H](C)CO)C[C@H](C)[C@@H](CN(C)C(=O)Cc1ccccc1)OCCCC[C@@H](C)O2 | inactive | inactive | inactive |
| C[C@H](CO)N1C[C@H](C)[C@H](CN(C)Cc2ccc(Cl)c(Cl)c2)Oc2ccc(NC(=O)Cc3cn(C)c4ccccc34)cc2C1=O | active | inactive | inactive |
| C[C@@H]1CCCCO[C@H](CN(C)C(=O)CCC(F)(F)F)[C@H](C)CN([C@H](C)CO)C(=O)c2cc(NC(=O)NC3CCCCC3)ccc2O1 | inactive | inactive | inactive |
| C[C@H]1CN([C@@H](C)CO)C(=O)c2cc(Br)cnc2O[C@H]1CN(C)S(=O)(=O)c1ccccc1F | inactive | inactive | inactive |
| OC[C@H]1O[C@@H](Oc2ccc(O)cc2)[C@H](O)[C@@H](O)[C@@H]1O | inactive | inactive | inactive |
| C[C@@H]1CN([C@@H](C)CO)S(=O)(=O)c2ccc(-c3cncnc3)cc2O[C@@H]1CN(C)C(=O)NC1CCCC1 | inactive | inactive | inactive |
| CCCNC(=O)N1C[C@H](O)COC[C@H]2O[C@@H](CC(=O)NCc3ccncn3)CC[C@@H]21 | inactive | inactive | inactive |
| C[C@@H]1CN([C@H](C)CO)S(=O)(=O)c2ccc(-c3cccnc3)cc2O[C@H]1CN(C)C(=O)NC1CCCC1 | inactive | inactive | inactive |
| O=C(N[C@@H]1C=C[C@@H](CC(=O)N2CCOCC2)O[C@H]1CO)c1ccc2c(c1)OCO2 | inactive | inactive | inactive |
| NCc1ccccc1 | inactive | inactive | inactive |
| Cc1noc(C)c1NC(=O)Nc1ccc2c(c1)C(=O)N([C@@H](C)CO)C[C@H](C)[C@H](CN(C)Cc1ccc(C(F)(F)F)cc1)O2 | inactive | inactive | inactive |
| CCN(Cc1cc(C(F)(F)F)ccc1-c1cc(CC(=O)O)ccc1OC)C(=O)NCc1ccccc1 | inactive | inactive | inactive |
| COc1ccc([C@@H]([C@H](Cc2ccccc2)OC(C)=O)N2C[C@@H]3C(=NO[C@@H]3[C@@H](O)c3ccccc3)[C@@H]2Cc2ccccc2)cc1 | inactive | inactive | inactive |
| CCS(=O)(=O)N1C[C@]2(CCN(CC2)C(=O)NC2CCCC2)c2c(n(c3cc(ccc23)OC)C)[C@@H]1CO | inactive | inactive | inactive |
| Cc1nnn2c1COC[C@H](CNCC(C)C)C2 | inactive | inactive | inactive |
| C[C@@H]1CN([C@@H](C)CO)C(=O)c2cccc(NC(=O)Nc3ccc(C(F)(F)F)cc3)c2O[C@@H]1CN(C)CC1CCCCC1 | inactive | inactive | inactive |
| COc1ccc(NC(=O)N(C)C[C@@H]2Oc3c(NC(=O)c4cnccn4)cccc3C(=O)N([C@@H](C)CO)C[C@@H]2C)cc1 | inactive | inactive | inactive |

| SMILES | cytotoxicity call (HSkMC) | cytotoxicity call (HepG2) | growth inhibition call (S. aureus RN4220) |
| --- | --- | --- | --- |
| O=C(CCBr)N1CCN(C(=O)CCBr)CC1 | inactive | inactive | inactive |
| Cc1ccc(S(=O)(=O)N(C)C[C@H]2Oc3c(NS(=O)(=O)c4cn(C)cn4)cccc3C(=O)N([C@@H](C)CO)C[C@@H]2C)cc1 | inactive | inactive | inactive |
| Cc1ncc([N+](=O)[O-])n1CCO | inactive | inactive | inactive |
| CC(C)C(=O)NCc1nccc(N(C)C)n1 | inactive | inactive | inactive |
| C[C@@H]1CN([C@@H](C)CO)C(=O)Cc2cc(NC(=O)Cn3cnnn3)ccc2O[C@@H]1CN(C)Cc1ccc(C(F)(F)F)cc1 | inactive | inactive | inactive |
| C[C@H]1CN([C@@H](C)CO)S(=O)(=O)c2ccc(C#Cc3ccncc3)cc2O[C@@H]1CN(C)C(=O)C1CCC1 | inactive | inactive | inactive |
| O=C(N[C@H]1C=C[C@@H](CC(=O)N2CCOCC2)O[C@@H]1CO)c1ccc2c(c1)OCO2 | inactive | inactive | inactive |
| C[C@H](CO)N1C[C@H](C)[C@H](CN(C)C(=O)Nc2ccc(-c3ccccc3)cc2)OCc2ccccc2-c2c(n(C)c3ccccc23)C1=O | active | inactive | inactive |
| CNC[C@@H]1Oc2ccc(NC(=O)Cn3cnnn3)cc2C(=O)N([C@H](C)CO)C[C@@H]1C | inactive | inactive | inactive |
| CCCNC(C)C(=O)Nc1ccccc1C.Cl (stereo unspecified) | inactive | inactive | inactive |
| C[C@@H]1CN([C@@H](C)CO)S(=O)(=O)c2ccc(-c3ccncc3)cc2O[C@H]1CN(C)C(=O)c1ccc2c(c1)OCO2 | inactive | inactive | inactive |
| C[C@@H]1CCCCO[C@@H](CN(C)S(C)(=O)=O)[C@H](C)CN([C@@H](C)CO)C(=O)c2cc(NS(C)(=O)=O)ccc2O1 | inactive | inactive | inactive |
| C[C@@H]1CN([C@@H](C)CO)C(=O)c2cc(NC(=O)Nc3ccc4c(c3)OCO4)ccc2O[C@@H]1CN(C)Cc1ccc(Cl)c(Cl)c1 | inactive | active | inactive |
| C[C@@H]1CCCCO[C@H](CN(C)S(=O)(=O)c2ccc(Cl)cc2)[C@H](C)CN([C@@H](C)CO)C(=O)c2cc(NC(=O)Nc3ccc(C(F)(F)F)cc3)ccc2O1 | inactive | inactive | inactive |
| Cl.OC(CCN1CCCC1)(c1ccccc1)C1CCCCC1 (stereo unspecified) | inactive | active | inactive |
| C[C@H]1CN([C@@H](C)CO)C(=O)c2cc(NC(=O)Nc3ccc(C(F)(F)F)cc3)ccc2O[C@@H]1CN(C)Cc1ccc2c(c1)OCO2 | active | active | inactive |
| COc1ccc(NC(=O)Nc2ccc3c(c2)C(=O)N([C@@H](C)CO)C[C@@H](C)[C@H](CN(C)Cc2ccc4c(c2)OCO4)OCCCC[C@@H](C)O3)cc1 | inactive | inactive | inactive |
| COc1cc(N2CCC(O)CC2)ccc1Nc1cc(Nc2ccccc2S(=O)(=O)C(C)C)c2cc[nH]c2n1 | inactive | inactive | inactive |
| NS(=O)(=O)c1ccc(Cl)c2nonc12 | inactive | inactive | inactive |

| SMILES | cytotoxicity call (HSkMC) | cytotoxicity call (HepG2) | growth inhibition call (S. aureus RN4220) |
| --- | --- | --- | --- |
| N#CC1(C#N)[C@H](c2ccccc2)[C@@H]1C(N)=O | inactive | inactive | inactive |
| C[C@H]1CN([C@@H](C)CO)S(=O)(=O)c2ccc(-c3cncnc3)cc2O[C@H]1CN(C)C(=O)Cc1cccnc1 | inactive | inactive | inactive |
| C[C@@H]1CCCCO[C@H](CN(C)Cc2ccc(C(F)(F)F)cc2)[C@@H](C)CN([C@H](C)CO)C(=O)c2cc(NC(=O)Nc3ccc(C(F)(F)F)cc3)ccc2O1 | inactive | active | inactive |
| C[C@@H]1CN([C@@H](C)CO)C(=O)c2cc(NS(=O)(=O)c3ccc(F)cc3)ccc2O[C@@H]1CN(C)S(=O)(=O)c1cn(C)cn1 | inactive | inactive | inactive |
| C[C@@H]1CN([C@@H](C)CO)C(=O)c2cc(NC(=O)Nc3ccc4c(c3)OCO4)ccc2O[C@H]1CN(C)Cc1ccc(-c2ccccc2)cc1 | inactive | active | inactive |
| C[C@@H]1CN([C@H](C)CO)C(=O)c2cc(NC(=O)Nc3cccc4ccccc34)ccc2O[C@@H](C)CCCCO[C@H]1CN(C)S(=O)(=O)c1cccs1 | inactive | inactive | inactive |
| C[C@@H]1CN([C@H](C)CO)C(=O)c2cc(NC(=O)Nc3ccc(F)cc3)ccc2O[C@H]1CN(C)S(=O)(=O)c1cn(C)cn1 | inactive | inactive | inactive |
| C[C@H](CO)N1C[C@H](C)[C@H](CN(C)Cc2ccc(Oc3ccccc3)cc2)Oc2ccc(NC(=O)CCCCCC(=O)Nc3ccccc3N)cc2CC1=O | inactive | inactive | inactive |
| O=C(O)CCCNC(=O)c1ccccn1 | inactive | inactive | inactive |
| CCCC(=O)Nc1ccc2c(c1)OC[C@@H](C)N(Cc1ccc(-c3ccccn3)cc1)C[C@@H](C)[C@@H](OC)CN(C)C2=O | inactive | inactive | inactive |
| Cc1noc(C)c1S(=O)(=O)Nc1ccc2c(c1)C(=O)N([C@@H](C)CO)C[C@@H](C)[C@@H](CN(C)Cc1ccc(C(=O)O)cc1)O2 | inactive | inactive | inactive |
| C[C@H](O)C1=C[C@]2(CC[C@@H]3C(C(=O)O)=CO[C@@H](O[C@@H]4O[C@H](CO)[C@@H](O)[C@H](O)[C@H]4O)[C@@H]32)OC1=O | inactive | inactive | inactive |
| Cc1noc(C)c1S(=O)(=O)Nc1cccc2c1O[C@H](CN(C)CC1CC1)[C@H](C)CN([C@@H](C)CO)C2=O | inactive | inactive | inactive |
| COc1ccc(NC(=O)N(C)C[C@H]2OCCCC[C@@H](C)Oc3ccc(NC(=O)CCC(F)(F)F)cc3C(=O)N([C@@H](C)CO)C[C@H]2C)cc1 | inactive | inactive | inactive |
| O=C(N[C@H]1C=C[C@@H](CC(=O)N2CCOCC2)O[C@H]1CO)c1ccc2c(c1)OCO2 | inactive | inactive | inactive |
| O=C1O[C@@H](c2ccccc2)[C@@H](c2ccccc2)N2[C@@H](c3ccc(O)cc3)[C@]3(C(=O)Nc4ccc(C#CCCO)cc43)[C@@H](C(=O)N3CCCCCCC3)[C@H]12 | inactive | inactive | inactive |
| COc1ccc(NC(=O)Nc2cccc3c2O[C@H](CN(C)S(=O)(=O)c2cn(C)cn2)[C@H](C)CN([C@@H](C)CO)C3=O)cc1 | inactive | inactive | inactive |
| C[C@@H]1CN([C@@H](C)CO)C(=O)c2cc(NS(=O)(=O)c3ccc(F)cc3)ccc2O[C@@H](C)CCCCO[C@@H]1CN(C)Cc1ccc(C(=O)O)cc1 | inactive | inactive | inactive |
| CO[C@@H]1CN(C)C(=O)c2cc(NC(=O)C3CC3)ccc2OC[C@@H](C)N(C(=O)Nc2ccc(C(F)(F)F)cc2)C[C@H]1C | inactive | inactive | inactive |
